# From PubChem BioAssay (Tox21)
# Where “and” joins values, the source holds several entries; their conditions need not be identical. Equal entries are not always repeated. Some structures have more than one record in an assay (separate samples or runs), and their calls can disagree. Calls of active or inactive are those of the source. Unless noted, calls come from the whole dose curve; as a rule, active = well fitted curve in the direction sought with a large enough effect in the repeat runs; inconclusive = weak or mixed curves; inactive = no such curve, though single readings can be large; an effect the other way counts as inactive or inconclusive.
# How the values were obtained:
# [1] = qHTS assay to identify small molecule antagonists of the androgen receptor (AR) signaling pathway - cell viability counter screen (AID 743033; note: nearly all actives have a fitted effect of over 45% in size; note: potency is the fitted concentration of half-maximal effect; for activity change, negative = cytotoxicity: % is set by controls: 0 for no effect and ±100 for the full control effect); details: AR-bla HEK293 viability, CellTiter-Glo luminescence, 16 h; activity change, negative = cytotoxicity: at 58.5 µM (top of the series) unless noted
# [2] = qHTS assay to identify small molecule antagonists of the androgen receptor (AR) signaling pathway using the MDA cell line - cell viability counter screen (AID 743041; note: nearly all actives have a fitted effect of over 45% in size; note: potency is the fitted concentration of half-maximal effect); details: MDA-kb2 viability, CellTiter-Fluor, 16 h, cells co-treated with R1881 androgen agonist; viability change, negative = cytotoxic: at 70.3 µM (top of the series) unless noted
# Procedure, shortened: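 Viability counter screen run alongside the AR antagonist reporter: cells seeded 5 h before compound, R1881 added, 16 h incubation at 37C without CO2, fluorescent CellTiter-Fluor signal quantified.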
# [3] = target: Estrogen receptor (Homo sapiens) (UniProt P03372); experiment: qHTS assay to identify small molecule antagonists of the estrogen receptor alpha (ER-alpha) signaling pathway (AID 743069; active = well fitted curve in the direction sought with a large enough effect in the signal ratio in the repeat runs, not every such curve was filed as active; inconclusive = weak or mixed curves, or effect the other way; inactive = no such curve, though single readings can be large or run the other way; the % refers to the signal ratio; note: potency is the fitted concentration of half-maximal effect; for activity, negative = inhibition: % is set by controls: 0 for no effect and ±100 for the full control effect); details: HEK293 ER-alpha-UAS-bla, beta-lactamase ratio, antagonist mode; activity, negative = inhibition: at 69.4 µM (top of the series) unless noted
# Procedure, shortened: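 Estradiol-stimulated ER-alpha-UAS-bla HEK293 cells, 18 hr compound exposure at 37C. LiveBLAzer B/G substrate, 2 hr RT, fluorescence read.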
# [4] = qHTS assay to identify small molecule antagonists of the estrogen receptor alpha (ER-alpha) signaling pathway - cell viability counter screen (AID 743074; calls by dose curve;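 note: HEK293 cells carrying ER-alpha-UAS-bla reporter stimulated with 17beta-estradiol; potency is the fitted concentration of half-maximal effect; nearly all actives have a fitted effect of over 45% in size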)
# [5] = target: Estrogen receptor (Homo sapiens) (UniProt P03372); experiment: qHTS assay to identify small molecule agonists of the estrogen receptor alpha (ER-alpha) signaling pathway using the BG1 cell line (AID 743079); details: BG1Luc4E2 cells, ERE-luciferase agonist, 22 h; activation: at 70.3 µM (top of the series) unless noted; note: nearly all actives have a fitted effect of over 20% in size; note: potency is the fitted concentration of half-maximal effect
# [6] = qHTS assay to identify small molecule antagonists of the estrogen receptor alpha (ER-alpha) signaling pathway using the BG1 cell line (AID 743080; calls by dose curve;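 note: BG1 cells stimulated with 17beta-estradiol alongside compound; potency is the fitted concentration of half-maximal effect; nearly all actives have a fitted effect of over 25% in size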); details: BG1Luc4E2 ERE-luciferase antagonist mode, luminescence; activity change, negative = inhibition: at 70.3 µM (top of the series) unless noted
# Procedure, shortened: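 Luciferase inhibition measured with ONE-Glo after 30 min at RT in BG1Luc4E2 cells given test compounds and 17beta-estradiol for 21.5 h at 37 C; CellTiter-Fluor viability read in the same wells beforehand.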
# [7] = qHTS assay to identify small molecule antagonists of the estrogen receptor alpha (ER-alpha) signaling pathway using the BG1 cell line - cell viability counter screen (AID 743081); details: BG1Luc4E2 viability, CellTiter-Fluor, 22 h; activity change, negative = cytotoxicity: at 70.3 µM (top of the series) unless noted;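 note: compound given together with 17beta-estradiol as the ER stimulus; potency is the fitted concentration of half-maximal effect; nearly all actives have a fitted effect of over 45% in size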
# [8] = qHTS assay to identify small molecule antagonists of the thyroid receptor (TR) signaling pathway - cell viability counter screen (AID 743064); details: GH3.TRE-Luc viability, CellTiter-Fluor, 24 h; activity change, negative = cytotoxic: at 70.3 µM (top of the series) unless noted; note: nearly all actives have a fitted effect of over 50% in size; note: potency is the fitted concentration of half-maximal effect; for activity change, negative = cytotoxic: % is set by controls: 0 for no effect and ±100 for the full control effect
# Procedure, shortened: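 Compounds were tested on GH3.TRE-Luc cells in the presence of T3 at 1 nM final. Following 23.5 h at 37 °C, cell viability was quantified by CellTiter-Fluor.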
# [9] = qHTS assay to identify small molecule antagonists of the thyroid receptor (TR) signaling pathway (AID 743065); note: nearly all actives have a fitted effect of over 55% in size; note: potency is the fitted concentration of half-maximal effect
# Procedure, shortened: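 GH3.TRE-Luc rat pituitary cells carrying two TR response elements driving luciferase were plated for 4 h, given compound plus 1 nM T3 (final), and incubated 23.5 h at 37 C. ONE-Glo luminescence measured reporter inhibition; CellTiter-Fluor fluorescence tracked cytotoxicity.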
# [10] = target: Estrogen receptor (Homo sapiens) (UniProt P03372); experiment: qHTS assay to identify small molecule agonists of the estrogen receptor alpha (ER-alpha) signaling pathway (AID 743075; calls by dose curve; note: potency is the fitted concentration of half-maximal effect)
# Aromatase (Homo sapiens) = Aromatase (Homo sapiens) (UniProt P11511); experiment: qHTS assay to identify aromatase inhibitors (AID 743083); details: MCF-7 aro ERE, testosterone-driven ERE luciferase, 24 h; activity, negative = inhibition: at 70.3 µM (top of the series); note: nearly all actives have a fitted effect of over 55% in size; note: potency is the fitted concentration of half-maximal effect
# [11] = target: Androgen receptor (Homo sapiens) (UniProt P10275); experiment: qHTS assay to identify small molecule antagonists of the androgen receptor (AR) signaling pathway (AID 743035; active = well fitted inhibition curve with a large enough effect in the signal ratio in the repeat runs, not every such curve was filed as active; inconclusive = weak or mixed curves, or effect the other way; inactive = no such curve, though single readings can be large or run the other way; the % refers to the signal ratio; note: potency is the fitted concentration of half-maximal effect; for activity change, negative = inhibition: % is set by controls: 0 for no effect and ±100 for the full control effect); details: HEK293 AR-UAS-bla, R1881-stimulated, beta-lactamase FRET, 16 h; activity change, negative = inhibition: at 58.5 µM (top of the series) unless noted
# Procedure, shortened: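 HEK293 cells stably carrying a UAS-driven beta-lactamase reporter (AR-UAS-bla GripTite) were plated for 4 h at 37C, then given compound and the agonist R1881 and incubated 16 h. Reporter activity was read by LiveBLAzer B/G FRET fluorescence after 2 h at room temperature.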
# [12] = target: Androgen receptor (Homo sapiens) (UniProt P10275); experiment: qHTS assay to identify small molecule antagonists of the androgen receptor (AR) signaling pathway using the MDA cell line (AID 743042; note: % is set by controls: 0 for no effect and ±100 for the full control effect; nearly all actives have a fitted effect of over 55% in size)
# Procedure, shortened: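 MDA-kb2 cells (human breast carcinoma, stably carrying an MMTV-luciferase reporter responsive to AR and GR) were plated at 3,000 cells/well and preincubated 5 hr at 37C, then given compound plus R1881 agonist for 16 h. ONE-Glo luminescence was read.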
# [13] = test system: thyroid hormone receptor (rat, GH3 cells); experiment: qHTS assay to identify small molecule agonists of the thyroid receptor (TR) signaling pathway (AID 743066; calls by dose curve; note: potency is the fitted concentration of half-maximal effect); details: GH3.TRE-Luc cells, TR agonist luciferase, 24 h; activation: at 83.9 µM (top of the series) unless noted
# [14] = target: Androgen receptor (Homo sapiens) (UniProt P10275); experiment: qHTS assay to identify small molecule agonists of the androgen receptor (AR) signaling pathway (AID 743036; active = well fitted activation curve with a large enough effect in the signal ratio in the repeat runs, with a control signal flat, not every such curve was filed as active; inconclusive = weak or mixed curves, or effect the other way; inactive = no such curve, though single readings can be large or run the other way; the % refers to the signal ratio; note: potency is the fitted concentration of half-maximal effect); details: HEK293 AR-UAS-bla GripTite, beta-lactamase FRET ratio, 16 h; activation: at 62.4 µM (top of the series) unless noted
# Procedure, shortened: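 Beta-lactamase under UAS control, stably integrated in HEK293 GripTite cells, reports receptor activation. After 16 h compound treatment, cells received FRET substrate for 2 h at room temperature before fluorescence reading.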
# Tags give direction and shape of the fitted curve or compound fluorescence and quenching.
# Chain of UniProt P11511 (P11511 whole entry, looked up): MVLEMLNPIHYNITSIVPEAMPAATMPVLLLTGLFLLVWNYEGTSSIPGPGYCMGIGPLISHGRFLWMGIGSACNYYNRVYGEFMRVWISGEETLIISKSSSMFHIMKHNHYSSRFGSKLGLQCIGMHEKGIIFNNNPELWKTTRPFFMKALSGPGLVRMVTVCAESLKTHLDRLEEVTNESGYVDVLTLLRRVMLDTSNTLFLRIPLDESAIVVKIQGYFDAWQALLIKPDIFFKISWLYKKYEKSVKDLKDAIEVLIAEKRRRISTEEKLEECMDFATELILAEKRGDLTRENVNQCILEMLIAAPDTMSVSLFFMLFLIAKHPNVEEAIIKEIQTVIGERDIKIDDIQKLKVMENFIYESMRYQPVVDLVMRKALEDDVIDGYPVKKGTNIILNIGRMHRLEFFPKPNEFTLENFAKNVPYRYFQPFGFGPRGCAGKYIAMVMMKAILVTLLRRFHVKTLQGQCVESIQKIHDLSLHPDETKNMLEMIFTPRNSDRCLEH
# Chain of UniProt P10275 (P10275 whole entry, looked up): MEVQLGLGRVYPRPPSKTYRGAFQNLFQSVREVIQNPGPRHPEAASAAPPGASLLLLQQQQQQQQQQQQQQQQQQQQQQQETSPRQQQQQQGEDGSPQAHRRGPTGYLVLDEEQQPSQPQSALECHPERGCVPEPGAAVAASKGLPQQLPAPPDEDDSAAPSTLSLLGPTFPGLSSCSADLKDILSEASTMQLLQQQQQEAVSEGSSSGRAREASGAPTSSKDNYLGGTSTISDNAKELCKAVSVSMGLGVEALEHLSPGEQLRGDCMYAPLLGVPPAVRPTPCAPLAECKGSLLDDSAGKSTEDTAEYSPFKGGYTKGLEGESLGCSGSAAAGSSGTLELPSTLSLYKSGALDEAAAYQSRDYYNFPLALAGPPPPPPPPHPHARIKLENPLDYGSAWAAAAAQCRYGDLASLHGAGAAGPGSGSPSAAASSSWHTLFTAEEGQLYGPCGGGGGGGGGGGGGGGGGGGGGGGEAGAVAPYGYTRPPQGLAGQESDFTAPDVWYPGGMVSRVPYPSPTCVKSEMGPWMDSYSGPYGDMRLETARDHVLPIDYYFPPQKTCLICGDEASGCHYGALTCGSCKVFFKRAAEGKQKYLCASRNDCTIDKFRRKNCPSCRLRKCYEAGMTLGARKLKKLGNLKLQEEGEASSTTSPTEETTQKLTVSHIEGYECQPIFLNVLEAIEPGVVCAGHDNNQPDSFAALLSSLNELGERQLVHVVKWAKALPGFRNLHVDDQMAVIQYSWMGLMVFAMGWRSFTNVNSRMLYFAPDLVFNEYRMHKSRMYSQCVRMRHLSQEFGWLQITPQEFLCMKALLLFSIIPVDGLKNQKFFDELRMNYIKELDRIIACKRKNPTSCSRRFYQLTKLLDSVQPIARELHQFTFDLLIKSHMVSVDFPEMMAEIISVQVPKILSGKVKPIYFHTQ
# Chain of UniProt P03372 (P03372 whole entry, looked up): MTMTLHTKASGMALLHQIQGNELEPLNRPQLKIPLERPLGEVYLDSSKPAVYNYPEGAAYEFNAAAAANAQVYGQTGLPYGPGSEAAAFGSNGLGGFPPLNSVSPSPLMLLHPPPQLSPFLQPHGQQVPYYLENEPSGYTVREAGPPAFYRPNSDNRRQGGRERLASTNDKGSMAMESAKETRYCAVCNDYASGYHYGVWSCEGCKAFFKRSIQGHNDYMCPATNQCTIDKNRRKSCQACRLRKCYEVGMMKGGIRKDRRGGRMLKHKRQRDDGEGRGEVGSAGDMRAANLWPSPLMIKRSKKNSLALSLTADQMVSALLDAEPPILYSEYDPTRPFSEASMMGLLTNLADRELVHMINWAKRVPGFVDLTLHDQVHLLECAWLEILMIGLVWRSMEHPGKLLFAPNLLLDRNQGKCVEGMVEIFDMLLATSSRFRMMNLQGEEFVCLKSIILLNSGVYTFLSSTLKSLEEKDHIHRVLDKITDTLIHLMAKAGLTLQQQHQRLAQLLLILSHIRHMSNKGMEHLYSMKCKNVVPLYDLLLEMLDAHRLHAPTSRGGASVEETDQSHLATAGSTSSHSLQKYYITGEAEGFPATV
structure (smiles),measurement,setting,value
Cc1oc(C)c(C(=O)Nc2ccccc2)c1C,Potency,[1],inconclusive: 21.9 µM [cytotoxic]
same,Potency,[2],"inconclusive: 43.3 µM [cytotoxic, partial curve, poor fit]"
same,Potency,[3],inconclusive: 12.3 µM
same,Potency,[4],"inconclusive: 17.4 µM [cytotoxic, partial curve, poor fit]"
same,Potency,[5],"inconclusive: 17.2 µM [inhibitor, full curve]"
same,Potency,[6],"inconclusive: 17.2 µM [falling, full curve]"
same,Potency,[7],"inconclusive: 27.3 µM [cytotoxic, full curve]"
CN(Cc1cc(Br)cc(Br)c1N)C1CCCCC1,Potency,[1],"inconclusive: 0.952 µM [cytotoxic, full curve, poor fit]"
same,Potency,[8],"inconclusive: 33.5 µM [cytotoxic, single point]"
same,Potency,[9],"inconclusive: 33.5 µM [inhibitor, single point]"
same,Potency,[3],"inconclusive: 10.7 µM [activator, partial curve]"
same,Potency,[5],"inconclusive: 29.8 µM [activator, partial curve, poor fit]"
COc1cccc2c1C(=O)c1c(O)c3c(c(O)c1C2=O)C[C@@](O)(C(=O)CO)C[C@@H]3O[C@H]1C[C@H](N)[C@H](O)[C@H](C)O1,Potency,[1],"inconclusive: 477 nM [cytotoxic, full curve, poor fit] and inconclusive: 436 nM [cytotoxic, full curve]"
same,Potency,[2],"inconclusive: 13.9 µM [cytotoxic, partial curve] and inconclusive: 21.7 µM [cytotoxic, partial curve]"
same,Potency,[8],inactive and active: 1.68 µM and active: 122 nM
same,Potency,[3],active: 6.01 µM [inconclusive] and active: 3.46 µM [inconclusive]
same,Potency,[10],active: 2.68 µM [inconclusive] and active: 15.5 µM [inconclusive]
same,Potency,[5],"inconclusive: 668 nM [activator, full curve] and inconclusive: 9.67 µM [inhibitor, full curve]"
same,Potency,[7],"inconclusive: 13.3 µM [cytotoxic, partial curve] and active: 27.3 µM"
same,Potency,Aromatase (Homo sapiens),active: 6.68 µM and active: 1.72 µM
OC1CCCCCCCCCCC1,"activity change, negative = cytotoxicity",[1],inconclusive: -34.6% [cytotoxic]
same,Potency,[8],"inconclusive: 69.2 µM [cytotoxic, single point]"
same,Potency,[9],"inconclusive: 69.2 µM [inhibitor, single point]"
same,Potency,[3],inactive
C[C@]12CCC(=O)C=C1CC[C@@H]1[C@@H]2C(=O)C[C@@]2(C)[C@H]1CC[C@]2(O)C(=O)CO,Potency,[1],"inconclusive: 54.9 µM [cytotoxic, partial curve, poor fit]"
same,Potency,[8],inactive
same,Potency,[3],"inconclusive: 7.76 µM [activator, full curve]"
CCCCCCc1ccc(N)cc1,Potency,[1],"inconclusive: 54.9 µM [cytotoxic, partial curve, poor fit]"
same,Potency,[11],active: 24.5 µM
same,Potency,[12],inactive
same,Potency,[3],active: 15.5 µM [inconclusive]
same,Potency,[6],"inconclusive: 6.11 µM [rising, full curve, poor fit]"
same,Potency,Aromatase (Homo sapiens),"inconclusive: 48.6 µM [inhibitor, partial curve]"
C[C@H](CS)C(=O)N1CCC[C@H]1C(=O)O,Potency,[1],inactive
same,"activity change, negative = inhibition",[11],inconclusive: 1.76%
same,Potency,[8],"inconclusive: 2.11 µM [rising, full curve, poor fit]"
CCCC(C(=O)OCCN(CC)CC)(c1ccccc1)c1ccccc1,Potency,[1],"inconclusive: 19 µM [cytotoxic, partial curve]"
same,Potency,[8],active: 23.7 µM
same,Potency,[5],inactive
same,Potency,[7],"inconclusive: 16.8 µM [cytotoxic, partial curve]"
same,Potency,Aromatase (Homo sapiens),"inconclusive: 33.5 µM [inhibitor, single point]"
CC(C)=C1CC[C@@H](C)CC1=O,Potency,[1],inactive
same,Potency,[9],inactive
same,Potency,[5],"inconclusive: 54.5 µM [activator, partial curve]"
same,Potency,[6],"inconclusive: 9.7 µM [rising, full curve, poor fit]"
C=CC(=O)OCC(CO)(COC(=O)C=C)COC(=O)C=C,Potency,[1],active: 6.94 µM and active: 11 µM
same,Potency,[11],active: 3.9 µM and active: 4.9 µM
same,Potency,[2],active: 17.3 µM and active: 27.3 µM
same,Potency,[8],active: 2.44 µM and active: 2.17 µM
same,Potency,[13],"inconclusive: 4.33 µM [inhibitor, partial curve, poor fit]"
same,Potency,[4],active: 39 µM and active: 49 µM
same,Potency,[5],"inconclusive: 27.4 µM [inhibitor, full curve] and inconclusive: 48.6 µM [inhibitor, partial curve]"
same,Potency,[7],active: 27.4 µM and active: 27.3 µM
CCOC(=O)[C@H](CCc1ccccc1)N[C@@H](C)C(=O)N1Cc2cc(OC)c(OC)cc2C[C@H]1C(=O)O,Potency,[1],inactive
same,Potency,[8],inactive
same,Potency,Aromatase (Homo sapiens),inactive
COc1ccc(-c2nc3ccc(C4=NNC(=O)CC4C)cc3[nH]2)cc1 (configuration not stated),Potency,[1],"inconclusive: 15.1 µM [cytotoxic, partial curve, poor fit]"
same,Potency,[11],active: 19 µM
same,activation,[14],inconclusive: 13.1%
same,Potency,[2],inactive
same,Potency,[8],"inconclusive: 29.8 µM [cytotoxic, partial curve]"
same,"activity, negative = inhibition",[3],inconclusive: 6.25%
same,Potency,[10],inconclusive: 10.7 µM [partial curve]
same,activation,[5],inconclusive: -3.96% [phenotype inactive]
CC(Cc1cccc(C(F)(F)F)c1)NCCOC(=O)c1ccccc1 (configuration not stated),Potency,[1],"inconclusive: 26.8 µM [cytotoxic, single point]"
same,Potency,[2],"inconclusive: 33.5 µM [cytotoxic, single point]"
O=C(O)c1cccc(Cl)n1,Potency,[1],inactive
same,Potency,[11],inactive
same,Potency,[14],"inconclusive: 27.5 µM [rising, partial curve, poor fit]"
same,Potency,[8],inactive
same,Potency,[3],inactive
CCCCCOC(=O)CCCCC,Potency,[1],inactive
same,Potency,[8],inactive
same,Potency,[4],"inconclusive: 19.5 µM [rising, partial curve]"
Nc1c2ccccc2nc2ccccc12,Potency,[1],"inconclusive: 5.35 µM [cytotoxic, full curve] and inconclusive: 4.31 µM [cytotoxic, full curve]"
same,Potency,[8],"inconclusive: 29.8 µM [rising, partial curve] and inconclusive: 47.9 µM [rising, partial curve]"
same,activation,[13],inconclusive: -7.46% [phenotype inactive]
same,Potency,[3],"inconclusive: 23.9 µM [fluorescent, single point] and inconclusive: 21.6 µM [fluorescent, partial curve]"
same,Potency,[5],active: 11.9 µM and active: 677 nM
same,Potency,[6],"inconclusive: 9.44 µM [rising, partial curve] and inconclusive: 8.52 µM [rising, partial curve]"
same,Potency,[7],"inconclusive: 29.8 µM [rising, partial curve] and inconclusive: 60.3 µM [rising, partial curve]"
same,Potency,Aromatase (Homo sapiens),active: 18.8 µM and active: 6.03 µM
